Results reported in patent US20240122985A1, “ANTIBODIES, COMBINATIONS COMPRISING ANTIBODIES, BIOMARKERS, USES & METHODS” (KYMAB LIMITED, priority 2016, published 2024).

Biological target: T1, CHO-S expressed hOX40L (Homo sapiens, UniProt P23510)
T1 construct: CHO-S cells (optionally transfected with full length human OX40L); expressed in transfected cells
T1 sequence (P23510 1-183): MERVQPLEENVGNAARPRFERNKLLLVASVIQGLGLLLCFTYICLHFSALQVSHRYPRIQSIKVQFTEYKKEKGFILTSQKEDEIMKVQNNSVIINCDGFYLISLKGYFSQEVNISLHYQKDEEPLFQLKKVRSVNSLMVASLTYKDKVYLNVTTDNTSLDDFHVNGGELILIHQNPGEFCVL
Test: Binding to CHO-S expressed hOX40L and receptor neutralisation (FACS)
Format: cell-based
Description: CHO-S cells expressing hOX40L or untransfected CHO-S cells, diluted in FACS buffer (PBS+1% w/v BSA+0.1% w/v NaN3) were distributed to a 96 well V-bottom plate (Greiner) at a density of 1×10^5 cells per well. Cells were washed with 150 μL of PBS and centrifuged at 300×g for 3 min. Supernatant was aspirated and 150 μL of PBS added. This wash step was repeated.
25 μL of hybridoma supernatant or purified antibody from hybridoma supernatant diluted in FACS buffer was added to the washed cells and incubated for 10-15 minutes. Reference Antibody or mouse IgG1 control antibody (Sigma) were diluted in FACS buffer to 20 μg/mL and 25 μL added to cells. 25 μL of human OX40R Fc (in-house) diluted to 1000 ng/mL in FACS buffer were then added to wells. Cells were incubated at 4° C. for 30 minutes. […]
To fix cells 100 μL 2% v/v paraformaldehyde was added and cells incubated for 30 minutes at 4° C., cells were pelleted by centrifugation 300×g and the plates and resuspended in 50 μL of FACS buffer. PE and APC signal intensity (geomean) was measured by flow cytometry using a BD FACS Array instrument.
% of control binding was calculated using geomean fluorescence as described in equation 1 where total binding was defined as reference antibody at 10 μg/mL and non-specific binding as mouse IgG1 antibody at 10 μg/mL. % receptor binding was calculated using Equation 3.

FACS Binding: YES
B1: 19H01 (hybridoma): anti-OX40L antibody from hybridoma; VH Seq ID No:94, VL Seq ID No:108 (antibody, V domains shown)
VH: [about 100 residues omitted here]DFLWFGEFPFDYWGQGTLVTVSS
VL: DIQMTQSPSSLSASVGDRVTITCRASQGISNYLAWYQQKPGKIPKLLIYAASTLQSGVPSRFSGSGSGTDFTLTISSLQPEDVATYYCQKYNSAPRTFGQGTKVEIK
modifications: 19H01 - VH Amino Acid Sequence; 19H01 - VL Amino Acid Sequence
